Measurements from PubChem BioAssay AID463173 (ICCB-Longwood Screening Facility, Harvard Medical School, 2010).
The campaign covered roughly 52,000 compounds. About 4,300 (8.3%) were called active. Rule as the data show it: active = survival mostly below about 52% (no sharp cut-off); inactive = mostly above about 56%. Some of the results follow.

Test system: DeltatarO mutant
Assay: S. aureus survival, RN4220 and DeltatarO strains – OD600, teichoic acid synthesis inhibitors, primary screen (AID 463173)
Settings: S. aureus RN4220 wild type/DeltatarO growth, OD600, 18 h, hits give low values, screened at 18.75 µg/mL (by protocol)

Compound | survival
COc1ccc(Nc2nc(OC)nc(OC)n2)cc1 | inactive: 90%
COc1ccc(-c2cc(C(=O)Oc3cccc(C)c3C)c3ccccc3n2)cc1 | active: 31%
COc1ccc(NC(=O)c2ccc3c(c2)CCN3S(=O)(=O)c2ccccc2)cc1 | inactive: 92%
COc1cc2c(cc1OC)n(CC(=O)c1ccc(C)cc1)c(=O)n1nc(CCn3nc(C)cc3C)nc21 | inactive: 100%
CCOc1ccc(CC(=O)NCc2ccc3c(c2)CCN3C(C)=O)cc1OCC | inactive: 102%
CN(C)CCNC(=O)Cn1nc(N2CCN(c3ccccc3)CC2)ccc1=O | inactive: 86%
COc1ccc(NC(=O)CCc2nnc3n(CC(C)C)c(=O)c4ccccc4n23)cc1OC | inactive: 87%
CC(C)(C)OC(=O)N1CCC(c2c(C(=O)N3CCN(c4ncccn4)CC3)cnn2-c2cccc(F)c2)CC1 | inactive: 130%
O=c1c2nncn2ccn1-c1ccc(F)c(F)c1 | inactive: 90%
O=C(c1cc2cc3ccc(Cl)cc3nc2o1)N1CCN(c2cccc(Cl)c2)CC1 | active: 46%
O=C(CN1C(=O)CSc2ccc(S(=O)(=O)N3CCCC3)cc21)NCc1ccc(F)cc1Cl | inactive: 82%
Cc1cccc(NC(=O)N2CC=C(c3c[nH]c4ccccc34)CC2)c1C | inactive: 73%
CCN(CC)C(=O)C1CCCN(c2ncnc3c2c(-c2ccccc2)cn3-c2cccc(C)c2)C1 (stereo not drawn) | inactive: 94%
COCCCNC(=O)C1CCN(c2nc3ccc(Cl)cc3[nH]2)CC1 | inactive: 118%
CC1=C(c2ccc(C(C)C)cc2)S(=O)(=O)NC1=NCc1ccc(Cl)cc1 | inactive: 101%
CCOC(=O)c1ccccc1NC(=O)c1nn(-c2ccc(OC)c(Cl)c2)c(=O)c2c1c1ccccc1n2C | inactive: 103%
Cc1sc2ncn(CC(=O)N3CCN(c4ccccc4)CC3)c(=O)c2c1S(=O)(=O)N1CCC(C)CC1 | inactive: 78%
O=c1c2sccc2n(Cc2cc(=O)n3cc(Cl)ccc3n2)c(=O)n1-c1ccccc1 | inactive: 56%
O=C1CCSc2ccc(S(=O)(=O)Nc3cccc(C(F)(F)F)c3)cc2N1 | active: -2%
O=c1c(N2CCN(c3cccc(Cl)c3)CC2)csc2ccc(Cl)cc12 | inactive: 144%
CCc1cccc(C)c1NC(=O)Cn1ncc2c3ccccc3n(Cc3ccccc3)c2c1=O | inactive: 86%
COc1ccc(-c2cn3nc(SCC(=O)Nc4cc(C)cc(C)c4)ccc3n2)cc1 | inactive: 71%

Compound | survival
CCCSc1ncnc2c1c(-c1ccccc1)cn2-c1ccccc1OC | active: 2%
COc1ccc(OC)c(NC(=O)CS(=O)(=O)Cc2nc(-c3ccc(C)cc3)oc2C)c1 | inactive: 71%
CCOc1ccc2c(c1)c(=O)c(S(=O)(=O)c1ccc(CC)cc1)cn2Cc1cccc(Cl)c1 | inactive: 70%
Cc1ccc(Cl)cc1Nc1nn2c(=O)c3ccc(C(=O)NC4CCCCC4)cc3nc2s1 | inactive: 123%
CCn1c(SC)nnc1C1CCCN(C(=O)Cc2cccnc2)C1 (stereo not drawn) | inactive: 106%
CCCCOC(=O)c1ccc(Nc2nc3ccc(C(=O)c4ccccc4)cc3n3cnnc23)cc1 | inactive: 54%
COc1ccc(CNC(=O)c2ccc(CS(=O)(=O)c3ccc(Br)cc3)o2)cc1 | inactive: 85%
CN(C)c1ccc(CNC23CN4CN(CN(C4)C2)C3)cc1 | inactive: 97%
CCOc1ccc(OCC)c(NC(=O)c2cc(-c3cccs3)nc3ccccc23)c1 | inactive: 85%
CCC(C)NC(=O)c1cn(CC)c2ccc(S(=O)(=O)N3CCc4ccccc4C3)cc2c1=O (stereo not drawn) | active: 35%
O=C(NCc1ccccc1Cl)c1ccc2c(c1)N(Cc1ccccc1)CCS2 | inactive: 79%
O=C(CSc1nc2ccccc2n1Cc1cccc(F)c1)N1CCN(c2ccc(F)cc2)CC1 | inactive: 64%
O=C(NC1CCCCCC1)c1ccc(CS(=O)c2cccc(Cl)c2)o1 (stereo not drawn) | inactive: 117%
Cc1cc(C)c(NC(=O)Cn2c(=O)n(CC(=O)NCCc3ccccc3)c(=O)c3ccccc32)c(C)c1 | inactive: 86%
CCOC(=O)c1[nH]c(C)c(CCC(=O)Nc2cc(Cl)c(OC)cc2OC)c1C | inactive: 122%
CS(=O)(=O)N(CC(=O)N1CCCCCC1)c1cc(Cl)cc(Cl)c1 | inactive: 85%
Cc1cc(N2CCC(C)CC2)nc2ccc(NC(=O)CCC(=O)N3CCN(c4ccccc4F)CC3)cc12 | inactive: 52%
O=S(=O)(c1ccc2nc(Nc3ccc(F)cc3)ccc2c1)N1CCCC1 | inactive: 75%
Cc1ccc(C)c(CNC(=O)CN2C(=O)CSc3ccc(S(=O)(=O)N(C)C)cc32)c1 | inactive: 87%
Cc1ccc(C)c2[nH]c(=O)c(CN(CCN3CCCC3)C(=O)Nc3cccc(Cl)c3)cc12 | inactive: 64%
COc1ccccc1N1CCN(S(=O)(=O)CCNC(=O)C(c2ccccc2)c2ccccc2)CC1 | inactive: 76%
COc1ccc(S(=O)(=O)N(CCc2ccccc2)CC(=O)Nc2cc(C)cc(C)c2)cc1OC | inactive: 54%

Compound | survival
CCc1ccc(NC(=O)Cn2c(=O)n(CCc3ccccc3)c(=O)c3sc4ccccc4c32)cc1 | inactive: 79%
CC(=O)c1cccc(N2C(=O)CN(S(C)(=O)=O)CC2(C)C(=O)NC2CCCC2)c1 (stereo not drawn) | inactive: 79%
Cc1nc(-c2ccc(C)c(S(=O)(=O)N3CCC(C(=O)NCc4ccc(F)cc4)CC3)c2)no1 | inactive: 88%
CCOCCCn1c(=N)c(C(=O)NCc2ccccc2)cc2c(=O)n3ccccc3nc21 | inactive: 74%
COc1cccc(NC(=O)Cn2c(=O)n(CCc3cccc(C)c3)c(=O)c3ccccc32)c1 | inactive: 84%
Cc1c2cnn(-c3ccccc3)c(=O)c2c(C)n1C(C)C(=O)NCc1cccc(Br)c1 (stereo not drawn) | inactive: 66%
COc1ccccc1N(CC(N)=O)S(=O)(=O)c1ccccc1 | inactive: 94%
O=c1[nH]cc(N=Cc2cccnc2)c(=O)[nH]1 | inactive: 93%
Cc1cccc(NC(=O)c2c(NC(=O)c3ccco3)sc3c2CCC(C)C3)c1 (stereo not drawn) | inactive: 53%
Cc1ccc(NC(=O)Cn2nc(-c3ccccc3)nc(Cc3ccccc3)c2=O)cc1 | inactive: 83%
COc1cccc(CNC(=O)c2ccc3c(c2)nc2n3CCC(C)C2)c1 (stereo not drawn) | inactive: 72%
CCCN(CCC)C(=O)c1nn(C)c2c1CSc1ccccc1-2 | inactive: 107%
CC(C)C(=O)Nc1cccc(C(=O)Nc2nnc(C(F)(F)F)s2)c1 | inactive: 58%
CCOc1ccccc1NC(=O)CCc1c(C)nc2cc(-c3ccccc3)nn2c1C | inactive: 46%
Cc1ccc(NC(=O)CN(c2ccc(C)cc2)S(=O)(=O)c2cccc3nonc23)cc1 | inactive: 86%
CCCCn1c(CNC(=O)C23CC4CC(CC(C4)C2)C3)nnc1SCC(=O)Nc1ccc(F)cc1 | active: 54%
Cc1cccc(NC(=O)Nc2nnc(N3CCCC3)s2)c1 | inactive: 103%
Cc1cccc(Cn2c(=O)n(Cc3ccccc3)c(=O)c3sc4ccccc4c32)c1 | inactive: 93%
Cc1cc(C(=O)NCc2ccccc2)c2c(C)nn(-c3cccc(Cl)c3C)c2n1 | inactive: 134%
Cc1ccccc1C(=O)Nc1ccccc1-c1nc(-c2ccccc2)no1 | inactive: 91%
Cc1nc(-c2cccc(F)c2)sc1CCNC(=O)C(=O)Nc1ccc2c(c1)OCCO2 | inactive: 71%
CCc1nc2nc(C)c(NS(=O)(=O)c3ccc(F)c(C)c3)c(=O)n2[nH]1 | inactive: 123%

Compound | survival
CCOc1ccc2nc(N3CCCC(C(=O)NCCc4ccc(C)cc4)C3)sc2c1 (stereo not drawn) | inactive: 64%
Cc1ccc(NC(=O)CSc2nc3ccccc3n2CC(=O)N(C)C2CCCCC2)cc1C | inactive: 94%
CC(C(=O)Nc1ccccc1)n1nnc2sc3c(c2c1=O)CCCC3 (stereo not drawn) | inactive: 61%
CCc1nc2ccc(NC(C)=O)cc2c(=O)n1Cc1ccccc1 | inactive: 79%
Cc1cccc(NC(=O)COc2ccc3oc4c(c3c2)CCCC4)c1 | active: 40%
COc1ccc(Cl)cc1NC(=O)Cn1nc(C(F)(F)F)cc1C | inactive: 74%
CC(C)OC(=O)CSc1nnnn1C | inactive: 75%
COc1ccc(CNC(=O)C(=O)NCC(c2cccs2)S(=O)(=O)c2cccs2)cc1 (stereo not drawn) | inactive: 89%
O=C(CCc1nc(-c2cccs2)no1)Nc1ccc([N+](=O)[O-])cc1 | inactive: 92%
N#CSc1ccc2nc(N)sc2c1 | inactive: 66%
Cc1ccc(S(=O)(=O)C(CNS(=O)(=O)c2ccc(F)c(C)c2)c2cccs2)cc1 (stereo not drawn) | inactive: 98%
O=C(NCCS(=O)(=O)N1CCN(c2ccccc2F)CC1)C1CC(=O)N(c2ccc(F)cc2)C1 (stereo not drawn) | inactive: 90%
CCc1ccccc1N(CC)C(=O)Cn1nc(Cc2ccncc2)c2ccccc2c1=O | inactive: 78%
Cc1ccc(-n2cnc3cc(C(=O)NCCC4=CCCCC4)ccc32)cc1Cl | inactive: 92%
CCOc1ccc(OCC)c(NC(=O)C2CCCN(S(=O)(=O)c3ccc(C)cc3)C2)c1 (stereo not drawn) | inactive: 60%
CCCN(CCC)C(=O)Cn1c(=O)n(-c2ccc(Cl)c(Cl)c2)c(=O)c2c(C)c(C(=O)N(C)C)sc21 | inactive: 115%
CCN(CC)S(=O)(=O)c1ccc(NC(=O)c2ccccc2)cc1 | inactive: 77%
O=C(Cn1c(=O)n(-c2ccccc2Cl)c(=O)c2sc3ccccc3c21)NC1CCCC1 | inactive: 107%
CCOc1ccc(-c2nnc(SCC(=O)N(CC)c3cccc(C)c3)o2)cc1 | inactive: 63%
Cc1ccn2c(Nc3ccc4c(c3)OCCO4)c(-c3ccc(N(C)C)cc3)nc2c1 | inactive: 102%
COc1ccccc1CNC(=O)CSc1cc(C)[nH]c(=O)n1 | inactive: 99%
COc1ccc(-c2c(C)nn3c(N4CCN(c5cc(Cl)ccc5C)CC4)cc(C)nc23)cc1OC | inactive: 85%
